# Experimental data taken from article PMC6212790.
# The other results are listed elsewhere or left out. At the low end of the ranking the order means little.
# Molecular target: T1, GST-Rok (full length) (UniProt O34857)
# T1 sequence: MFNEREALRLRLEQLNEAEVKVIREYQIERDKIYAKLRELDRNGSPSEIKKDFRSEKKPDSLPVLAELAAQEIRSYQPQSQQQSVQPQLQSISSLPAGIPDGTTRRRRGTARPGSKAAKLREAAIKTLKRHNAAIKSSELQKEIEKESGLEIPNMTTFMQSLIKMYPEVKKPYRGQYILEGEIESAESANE
# Assay: protein binding microarray;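 further: rank score from −0.5 (least bound) to 0.5 (best bound)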
# Conditions: Rok is a gene silencer of Bacillus subtilis; high values mean tight binding; most listed sequences are background and not binding sites; double strand, one strand shown
row,Sequence,binding signal [E-score]
1,AGCGAAAT,0.133
2,AATCTGCG,0.12
3,AAGTACTA,0.389
4,ATTTAGGA,0.0912
5,AAGCTGTG,-0.215
6,TATGGTGA,0.0651
7,ACGTTAGA,0.156
8,ATATGTGA,0.289
9,ATCTAATA,0.313
10,AACGTAGT,0.0637
11,ACGCTCTG,-0.166
12,CCCGGTGC,-0.425
13,GCAACCAC,0.0207
14,AAAGGCGC,-0.244
15,CCGGTTAC,-0.0649
16,ATTGGTAG,0.371
17,CCCTATTA,0.139
18,CGAAGACC,-0.141
19,CTCACGCA,0.0487
20,AAGGGCTA,-0.211
21,CGAAACCC,-0.231
22,CGCCTGGA,-0.213
23,AGCACATA,0.0447
24,ACTGTCTA,-0.118
25,CGCGGAAC,-0.156

row,Sequence,binding signal [E-score]
1,ATTAAGAC,-0.0587
2,CCAAAGCA,-0.138
3,GCCCGAAA,-0.17
4,AAGCCATT,-0.129
5,TCACCTAA,0.082
6,ACGATACC,-0.0445
7,ACGCAGAC,-0.167
8,ATGTAGGG,0.0923
9,CACCGCAG,-0.203
10,AGAAAGAA,0.0909
11,TCAATAGA,0.0845
12,CCGAACAC,-0.249
13,ATGACGAA,0.142
14,CCCTGCAG,-0.193
15,CGAGCCCG,-0.303
16,AGAGGAGC,-0.242
17,ACGCGAAA,-0.0244
18,AGGGGGAA,-0.113
19,CCCCAGAC,-0.315
20,CGTCGGTC,-0.154
21,GATTTTCC,0.00285
22,GTACTTAA,0.275
23,AATAAAAT,0.292
24,CGAACCCA,-0.0636
25,CCGAGGCA,-0.0194

row,Sequence,binding signal [E-score]
1,AATCAACG,-0.00845
2,CAATACGC,-0.0523
3,GACCTAGA,-0.0649
4,GCCATGAA,-0.244
5,ACGCATGC,-0.046
6,CCTTGGCG,-0.147
7,CCCACACC,-0.0663
8,TCCTGTAA,0.0805
9,ATGGAAAT,-0.0689
10,ACCAACCA,-0.116
11,CAGGAACA,-0.106
12,GAAGACAC,0.118
13,ATATTGTC,0.255
14,AAGCCTTG,-0.186
15,GAAGCAAA,-0.0122
16,CATACCCA,0.125
17,CGACAAAA,0.072
18,CTCCCTAC,-0.27
19,ACGTTGCT,0.0646
20,AGCGCTGC,-0.226
21,CCTATAAA,0.298
22,ATACGAGG,-0.0656
23,AAAGCTAC,0.262
24,GAAAATAA,0.145
25,AAAAACAC,0.0452

row,Sequence,binding signal [E-score]
1,AAGTCCCT,-0.0919
2,CTCCTTAA,-0.19
3,GAGCCCTA,-0.26
4,ACCAAGCA,0.126
5,CCAAGTTA,0.137
6,AATATGAA,0.13
7,CTGATGTA,0.291
8,CCGCTTAA,-0.129
9,TAAAACCA,0.103
10,TCACTAAA,0.166
11,TACAAGTA,0.288
12,ACCGCTAC,0.137
13,CCGCGCCA,-0.295
14,GACACGGA,-0.0973
15,GCATAAAC,0.121
16,AGTAAATA,0.387
17,CGTGCTAA,-0.0203
18,CCTATTAA,0.0748
19,AGCAAGAG,-0.0216
20,CGTAGATC,0.21
21,AGAGTACG,0.0142
22,ACCCTCCC,-0.137
23,CCTCAGTA,0.0795
24,TTAGCTAA,0.129
25,CCTGATCC,-0.354

row,Sequence,binding signal [E-score]
1,CTAGGCAA,0.0422
2,ATTGATCA,0.101
3,GATGGGTA,0.0804
4,ACGATTGG,0.0241
5,AGGAAGTC,-0.31
6,AAGCGTCG,-0.184
7,GATTGAAA,0.0292
8,AGGGGCAC,-0.364
9,AGTGATCA,-0.0418
10,AGTGGTAT,0.301
11,AATGAATC,0.207
12,CACAAGAA,-0.0726
13,GGCACGCC,-0.366
14,GAGAGACA,-0.0673
15,CGACTAAA,-0.0868
16,GGATAGAC,-0.148
17,AGCGACTA,-0.0166
18,CTTACGCC,-0.017
19,AATTAGGT,0.178
20,CCCAATCG,-0.163
21,CACAACCA,-0.129
22,AGGACGAA,-0.206
23,GCTTTACA,0.0417
24,CACGTCTC,-0.183
25,CTTCGTAA,-0.101

row,Sequence,binding signal [E-score]
1,AATTCTGA,0.179
2,CCTACTCA,0.114
3,GCCCTGTA,-0.175
4,AACTCCAG,-0.0103
5,ATAGTTTC,0.398
6,CTGTTAAG,-0.0725
7,CCCCTGAA,-0.363
8,CTTGGATC,-0.194
9,AATGCGGA,-0.0975
10,AAGAATTC,0.225
11,ACGAGCAA,-0.061
12,CTGGCTGA,-0.223
13,ACAGCCGC,-0.136
14,ACGTATGC,0.0834
15,TAAGTATA,0.155
16,CACCTAAC,0.06
17,CAGACGGG,-0.323
18,CGTATTCA,0.132
19,CATCCAGC,-0.135
20,ACGGGAAG,-0.0949
21,GACATGTC,-0.17
22,ATATGGCA,0.0716
23,AAGCTGCC,-0.0576
24,GCAAAAGA,-0.14
25,CGCCCGCC,-0.282

row,Sequence,binding signal [E-score]
1,AACCCGCC,-0.157
2,CGACTACA,0.0566
3,ATCTCGAC,0.0592
4,CCGGACCG,-0.109
5,CGTGGACC,-0.308
6,ATTCTGCC,-0.00526
7,CCAATCGC,-0.041
8,AAGCTACA,0.265
9,GCGCATTA,0.182
10,GGGCTTAC,-0.238
11,GGTGTCTA,-0.198
12,ACCGCGGT,-0.333
13,ATGTTTTG,0.148
14,AACTTGTC,-0.0088
15,CTCTCTAA,-0.0455
16,GGATGTAA,0.182
17,AGGGCGTC,-0.433
18,CACATGCC,-0.234
19,CAGCGATG,-0.0207
20,AATAGTGT,0.292
21,ACTCTAGG,-0.135
22,AGCAAACT,0.248
